# Test results reported in PubChem BioAssay AID1347428 (National Center for Advancing Translational Sciences (NCATS), 2020).
# Screen size: about 91,000 compounds; about 290 (0.32%) were called active. The shares of active, inactive and inconclusive entries below differ from those in the screen. Calls follow the shape of the dose curve; as a rule, active = well fitted inhibition curve with a large enough effect; inconclusive = small, poorly fitted or top-dose-only effect; inactive = no such curve, though single readings can be large or run the other way. A potency beside an inconclusive call is a rough fit, not a confirmed value.
# Target: Single-stranded DNA cytosine deaminase (Homo sapiens) (UniProt Q9GZX7)
# Test: Primary qHTS assay for inhibitors of Activation Induced Cytidine Deaminase (AID): AID signal; also: nearly all actives have a fitted effect of over 25% in size
# Conditions: AID deamination FRET fluorescence, UDG-coupled, 4 h; activity change, negative = inhibition: at 115 µM (top of the series)
# % is scaled to controls: 0 for no effect and ±100 for the full control effect; potency is read from the fitted curve at half-maximal effect; tags tell the direction and shape of the fitted curve.
# UniProt Q9GZX7, sequence (Q9GZX7 whole entry, looked up): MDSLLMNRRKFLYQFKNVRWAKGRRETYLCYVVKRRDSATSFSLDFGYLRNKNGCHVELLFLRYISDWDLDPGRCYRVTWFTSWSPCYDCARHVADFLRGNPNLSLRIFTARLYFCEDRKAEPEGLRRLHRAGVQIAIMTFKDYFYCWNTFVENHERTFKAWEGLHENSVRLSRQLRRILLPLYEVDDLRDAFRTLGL
SMILES,Potency,"activity change, negative = inhibition"
CCCS(=O)(=O)c1c(S(=O)(=O)CCC)c2cc(C(C)(C)C)ccn2c1C(=O)c1ccc(OC)c(OC)c1,"inconclusive: 15.8 µM [inhibitor, partial curve, poor fit]",–
O=C(Nc1ccc(F)c(Cl)c1)C1CCCN(c2ncnc3onc(-c4ccc(F)cc4)c23)C1 (configuration not stated),"inconclusive: 14.1 µM [inhibitor, full curve, poor fit]",–
Oc1ccc2ccccc2c1C=Nc1c(F)c(F)c(F)c(F)c1F,"inconclusive: 100 µM [inhibitor, single point]",–
Cc1ccc(C)c(CNC(=O)C2CCCCN2S(=O)(=O)c2ccc(F)cc2)c1 (configuration not stated),–,inactive: -26.6%
COc1ccc(C2NC(=O)N(C)C3=C2C(=O)N(c2ccccc2)C3)cc1 (configuration not stated),"inconclusive: 22.4 µM [inhibitor, full curve, poor fit]",–
COc1ccc(CCNC(=O)C(C)n2nc(C)c3sc4ccccc4c3c2=O)cc1OC (configuration not stated),"inconclusive: 25.1 µM [inhibitor, partial curve, poor fit]",–
COc1ccc(-c2nc(C)c(CCNC(=O)c3cccc(C)c3)s2)cc1OC,"inconclusive: 79.4 µM [inhibitor, partial curve, poor fit]",–
CC(NC(=O)c1ccco1)C(=O)Nc1nc(-c2cccc3ccccc23)cs1 (configuration not stated),–,inactive: -7.92%
CCn1cc(S(=O)(=O)c2ccccc2)c(=O)c2cc(F)c(N3CCCCCC3)cc21,"inconclusive: 15.8 µM [inhibitor, full curve, poor fit]",–
CCOCCCn1c(=N)c(S(=O)(=O)c2ccccc2)cc2c(=O)n3cc(C)ccc3nc21,–,inactive: 130%
CCCCCCCCCCCCSCCC(=O)O,"inconclusive: 89.1 µM [inhibitor, single point]",–
Cc1c(C(=O)N2CCOCC2)oc2c1-c1nn(CC(=O)NCc3ccccc3)cc1CC2,"inconclusive: 100 µM [inhibitor, single point]",–
Clc1ccc2c(NN=C3CCCC3)ccnc2c1,–,inactive: 16.1%
O=C(c1cnn(-c2ccc(F)cc2)c1-n1cccc1)N1CCC2(CC1)OCCO2,–,inactive: 2.03%
Oc1c(Cl)cc(Cl)c(Cl)c1Sc1c(O)c(Cl)cc(Cl)c1Cl,"inconclusive: 79.4 µM [inhibitor, single point]",–
CC1CCCCC1NC(=S)NCc1ccncc1 (configuration not stated),–,inactive: -2.45%
COc1cc(F)ccc1-c1ccc(=O)n(CC(=O)N2CCC(Cc3ccccc3)CC2)n1,–,inactive: -22.4%
Cc1ccc(-c2cccc(N)c2)cc1,–,inactive: 4%
Cc1ccc2c(c1)C(c1ccccc1)N(C(=O)COc1ccc(Cl)cc1Cl)CC(=O)N2 (configuration not stated),"inconclusive: 39.8 µM [inhibitor, partial curve, poor fit]",–
CC(C)(C)c1ccc(C(=O)NCC(c2ccco2)S(=O)(=O)c2ccccc2)cc1 (configuration not stated),"inconclusive: 56.2 µM [inhibitor, partial curve, poor fit]",–
O=C(Cn1nc(C(=O)O)c2ccccc2c1=O)Nc1ccccc1Cc1ccccc1,–,inactive: 0.298%
Cc1cccc(C)c1OCCn1c(CCNC(=O)C2CCCCC2)nc2ccccc21,"inconclusive: 50.1 µM [inhibitor, partial curve, poor fit]",–
COc1ccc(C(=O)Oc2c(Sc3ccccc3)c(C)nn2-c2ccccc2)c(OC)c1,"inconclusive: 28.2 µM [inhibitor, full curve, poor fit]",–

SMILES,Potency,"activity change, negative = inhibition"
Brc1ccc(-c2cn3c4ccccc4nc3n2CCCN2CCCC2)cc1,"inconclusive: 44.7 µM [inhibitor, full curve, poor fit]",–
O=C1CC(c2ccccc2)Sc2ccccc2N1Cc1ccccc1F (configuration not stated),"inconclusive: 22.4 µM [inhibitor, full curve, poor fit]",–
C=CCNc1nc(-c2c(N)n(CC(C)C)c(=O)n(C)c2=O)cs1,–,inactive: 4.08%
CCCCC(=O)N1c2ccccc2C(C)(c2ccccc2)CC1(C)C (configuration not stated),"inconclusive: 100 µM [inhibitor, single point]",–
CCc1cc(=O)[nH]c(SCc2nc(-c3ccc(C(F)(F)F)cc3)no2)n1,"inconclusive: 79.4 µM [inhibitor, partial curve, poor fit]",–
Cc1cc(Cl)ccc1OCC(=O)N(Cc1ccc(N(C)C)cc1)C1CCS(=O)(=O)C1 (configuration not stated),"inconclusive: 28.2 µM [inhibitor, partial curve, poor fit]",–
Cc1ccc2oc(=O)cc(-c3cc4ccccc4o3)c2c1,–,inactive: -9.99%
CCCc1nnc(NC(=O)C(CC)Sc2nnc3c4ccccc4n(C)c3n2)s1 (configuration not stated),–,inactive: 16.7%
CC(C)N(Cc1nc(-c2ccc(Cl)cc2)no1)C(=O)c1ccco1,"inconclusive: 63.1 µM [inhibitor, partial curve, poor fit]",–
Cc1ccc(-c2ccc(/C=C/C(=O)c3ccccc3)o2)cc1Cl,–,inactive: -3.16%
Cc1ccc(CSc2nc3ccncc3n2Cc2nc(-c3ccccc3C)oc2C)cc1,"inconclusive: 44.7 µM [inhibitor, partial curve, poor fit]",–
Cc1cccc(N2C(=O)N(Cc3cccc(C#N)c3)c3ccccc3S2(=O)=O)c1,"inconclusive: 3.55 µM [inhibitor, full curve, poor fit]",–
COc1ccc(CNC(=O)c2cccn2-c2nnc(N3CCCCC3)s2)c(OC)c1,"inconclusive: 63.1 µM [inhibitor, partial curve, poor fit]",–
CCN1C(=O)c2ccccc2S(=O)c2ccc(C(=O)NCc3ccc(Cl)cc3)cc21 (configuration not stated),"inconclusive: 10 µM [inhibitor, full curve, poor fit]",–
O=C1CCSC2(C(=O)N(Cc3ccc(F)cc3)c3ccccc32)N1c1cccc(F)c1 (configuration not stated),"inconclusive: 89.1 µM [inhibitor, partial curve, poor fit]",–
N#Cc1c(/N=C/c2cccc(Br)c2)sc2c1CCCC2,–,inactive: -3.51%
COc1ccc(Nc2c(-c3ccsc3)nc3nc(C)cc(C)n23)cc1,"inconclusive: 50.1 µM [inhibitor, partial curve, poor fit]",–
CCCCCCOc1ccccc1/C=C(\C#N)C(=O)c1ccccc1,"inconclusive: 50.1 µM [inhibitor, partial curve, poor fit]",–
N#Cc1c(N2CCN(C(=O)C(=O)NCCc3ccccc3)CC2)nc(-c2ccco2)c2c1CCCC2,–,inactive: -10.6%
O=[N+]([O-])c1ccc(O)c(-c2ccnc3cc(-c4ccccc4)nn23)c1,"inconclusive: 17.8 µM [inhibitor, single point]",–
Cc1ccc(Cn2c(CN3CCN(c4cccc(Cl)c4)CC3)nc3c2c(=O)n(C)c(=O)n3C)cc1,"inconclusive: 17.8 µM [inhibitor, full curve, poor fit]",–
Cc1nc2c(c(C)nn2C(C)(C)C)c(C)c1CCC(=O)Nc1ccc(F)cc1,"inconclusive: 89.1 µM [inhibitor, single point]",–
CC1CCN(C(=O)CSc2nc3ccccc3nc2Cc2ccccc2)CC1,"inconclusive: 20 µM [inhibitor, full curve, poor fit]",–

SMILES,Potency,"activity change, negative = inhibition"
CCCn1c(=O)n(CC(=O)NCc2nnc3n2CCCCC3)c2ccccc21,–,inactive: 3.41%
COc1ccc(NC(=O)c2ccco2)cc1NC(=O)c1c(OC)cccc1OC,"inconclusive: 31.6 µM [inhibitor, partial curve, poor fit]",–
CCOC(=O)C1=C(CN(CCOC)Cc2ccco2)NC(=O)NC1c1cccc(OC)c1OC (configuration not stated),–,inactive: -4.9%
CC(C)c1ccc2occ(CC(=O)N(Cc3ccc(F)cc3)C3CCS(=O)(=O)C3)c2c1 (configuration not stated),"inconclusive: 39.8 µM [inhibitor, full curve, poor fit]",–
COc1ccc(CCNC(=O)c2ccc3c(c2)ncn3-c2ccc(C(C)C)cc2)cc1OC,"inconclusive: 50.1 µM [inhibitor, partial curve, poor fit]",–
CC(=O)c1ccc(N2CCN(C(=O)Nc3ccc(C(C)C)cc3)CC2)cc1,"inconclusive: 79.4 µM [inhibitor, partial curve, poor fit]",–
Cc1cc(C(=O)Nc2ccccc2C(=O)O)ccc1NC(=O)CSc1ccccc1,"inconclusive: 56.2 µM [inhibitor, partial curve, poor fit]",–
O=C(Cc1c[nH]c2ccccc12)NCCc1ccc(Cl)cc1,–,inactive: -2.42%
COc1ccc(NS(=O)(=O)c2ccc3[nH]c4c(c3c2)CCCCC4)cc1,–,inactive: -0.224% [at 57.5 µM]
O=S(Cc1ccccc1)Cc1cccc(C(F)(F)F)c1 (configuration not stated),–,inactive: -7.27%
COc1ccc(CNc2nc(SCc3ccccc3Cl)nc3ccccc23)cc1,"inconclusive: 56.2 µM [inhibitor, partial curve, poor fit]",–
O=C(Nc1cccc(F)c1)C1=Cc2sc3c(c2CS1)CCCC3,–,inactive: 23.9%
CCc1nc(C)cn1S(=O)(=O)c1ccc(Cl)c(Cl)c1OC,"inconclusive: 100 µM [inhibitor, single point]",–
COCCN(Cc1cc2ccc(C)cc2[nH]c1=O)C(=O)c1cccc(OC)c1,–,inactive: 6.9%
O=C(COC(=O)CCSc1ccccc1Cl)Nc1ncc(Cl)cc1Cl,–,inactive: 13%
Oc1ccc(NCc2ccc(OCc3ccccc3)cc2)cc1,active: 2.82 µM,–
CC(C)(CNC(=O)NCC1CC=CCC1)C(N)=O (configuration not stated),–,inactive: 0.958%
C=C(C)C1CCC2(COC(=O)CCC(=O)O)CC[C@]3(C)C(CCC4[C@@]5(C)CCC(OC(=O)CCC(=O)O)C(C)(C)C5CC[C@]43C)C12 (some centres not stated),active: 28.2 µM,–
CCCCNc1nc(-c2ccc(N(CC)S(C)(=O)=O)cc2)cs1,–,inactive: -10.9%
COc1ccc(C)cc1NC(=O)C(=O)NCC(c1cccnc1)N1CCN(c2ccccc2F)CC1 (configuration not stated),"inconclusive: 50.1 µM [inhibitor, partial curve, poor fit]",–
CC(c1ccc(Cl)cc1Cl)N(C)Cc1nc2ccccc2o1 (configuration not stated),"inconclusive: 39.8 µM [inhibitor, full curve, poor fit]",–
